PMC7819943, “Rice protein-binding microarrays: a tool to detect cis-acting elements near promoter regions in rice”
Some of the results follow.

The sequences below were run against T1, OsWOX13 (Oryza sativa, UniProt Q5QMM3 1-267) (assay: protein-binding microarray (RPBM); PBS, 2% BSA, 51.3 ng/ul salmon testes DNA, 50 uM zinc acetate, 200 nM TF, 25 C, 1 h; high values mean tight binding). Conditions: protein: recombinant; tags: N-terminal polyhistidine and DsRed monomer fusion (pET32a); label: CyDye5-dUTP incorporated in the synthesized complementary strand; 3' TTTTT single-stranded linker to array surface; dsDNA, one strand shown.
T1 sequence: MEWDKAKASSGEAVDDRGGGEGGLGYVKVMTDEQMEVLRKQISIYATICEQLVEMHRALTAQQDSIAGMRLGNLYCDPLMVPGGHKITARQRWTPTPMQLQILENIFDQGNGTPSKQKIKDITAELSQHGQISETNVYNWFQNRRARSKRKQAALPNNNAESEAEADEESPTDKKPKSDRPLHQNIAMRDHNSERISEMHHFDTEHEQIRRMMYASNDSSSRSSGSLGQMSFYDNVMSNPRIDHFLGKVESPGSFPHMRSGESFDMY
Outline: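 Binding signal is defined as the fluorescence intensity of each feature in arbitrary units, read on an Axon 4000B scanner. Transcription factors with N-terminal polyhistidine and DsRed fusions came from E. coli BL21-CodonPlus and were purified on Ni–NTA. They were incubated at 200 nM for 1 h at 25 °C on a custom Agilent array that had been made double-stranded with Cy5-dUTP, with 50 µM zinc acetate present, and the array was washed.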

Sequence | binding signal
CTTAATTTAGAGTTGATTTTGGAGTTTCTTTTATCGTAGTCGGAGTCACCTAGTGCAG | 39500 fluorescence intensity (a.u.)
ATATATATATATATATATATATATATATATATATATCTGTCGGAGTCACCTAGTGCAG | 19500 fluorescence intensity (a.u.)
CTTTAAAATTGATTTGTCATCTAACTATGCTGTTGTCATGCGGAGTCACCTAGTGCAG | 45400 fluorescence intensity (a.u.)
CATGTTAATTTGCTCTCCCCGGTAACACTTCATTCTTGAACGGAGTCACCTAGTGCAG | 19000 fluorescence intensity (a.u.)
TTTGACATTAATCCAAACAGGTATCAACAAGAGATTACGTCGGAGTCACCTAGTGCAG | 5300 fluorescence intensity (a.u.)
AGAAGCTAATTAAGTGGACTGACAATATAAAAGAGGAGATCGGAGTCACCTAGTGCAG | 7280 fluorescence intensity (a.u.)
AAGTGATCACTAATTAGGGATGGAGGTAGTAGAAGACTTCCGGAGTCACCTAGTGCAG | 11500 fluorescence intensity (a.u.)
TGAATGATTGCTCTTGTGCTAAGAGAATAGACTTTATCCCCGGAGTCACCTAGTGCAG | 32000 fluorescence intensity (a.u.)
ATTGAGCCAGATTGAATGGGTGAAAGTTGTATACTGTAAACGGAGTCACCTAGTGCAG | 5350 fluorescence intensity (a.u.)
AATAGATTAATCGATTAATAGTAAACCACTTCAATGGTATCGGAGTCACCTAGTGCAG | 20000 fluorescence intensity (a.u.)
TTTCCACAATTAATTCCATTCCAATCCTCGTAATCTCCCCCGGAGTCACCTAGTGCAG | 5610 fluorescence intensity (a.u.)
GTCGCTGTTAATTAATTGACGCCAAGTCCACGGTAAGTTTCGGAGTCACCTAGTGCAG | 43100 fluorescence intensity (a.u.)
ACTAATTGTACAATTAGAGGAGAAATCGCGAGACGAATCTCGGAGTCACCTAGTGCAG | 31000 fluorescence intensity (a.u.)
TATGAATTGACTATTATATTGGCTATGGATGATTTGTAGTCGGAGTCACCTAGTGCAG | 30100 fluorescence intensity (a.u.)
AATTGGCTATTAAATTAACTATAGATAATTTAAAGATAATCGGAGTCACCTAGTGCAG | 12600 fluorescence intensity (a.u.)
TCCTCTCATTTTAATCTATTTATCGTGGATCCCATTCCGACGGAGTCACCTAGTGCAG | 3460 fluorescence intensity (a.u.)
AACAAAATTTACTCAATAAGGTATAAATAGAAAATCGACCCGGAGTCACCTAGTGCAG | 5440 fluorescence intensity (a.u.)
GAGGACAGGATGGATTGGTGGGGAGGTGGATAAGTGGTGGCGGAGTCACCTAGTGCAG | 3780 fluorescence intensity (a.u.)
AGACAATGATAGTGATAATTAACAAATTCAGTTTAAGATCCGGAGTCACCTAGTGCAG | 19700 fluorescence intensity (a.u.)
CACTTACCAATTATAGGTTCATCTCTCAAGCATCTCTACGCGGAGTCACCTAGTGCAG | 4080 fluorescence intensity (a.u.)
CTTCTACAATAAACTGAAATTAATGCAGAACAAGCAGATACGGAGTCACCTAGTGCAG | 4530 fluorescence intensity (a.u.)

Sequence | binding signal
TATGATTAATATTTTCTATTGTAGATGATGAAATATAAAGCGGAGTCACCTAGTGCAG | 20300 fluorescence intensity (a.u.)
ATAATTAGAGTAATGATCAGGTTTGAGAAAGAGGATTAATCGGAGTCACCTAGTGCAG | 3610 fluorescence intensity (a.u.)
TTTACAATTTAGATCATTTGGACAGTTAATTCCTAACATGCGGAGTCACCTAGTGCAG | 7700 fluorescence intensity (a.u.)
GTAAATTAGAAGTGATTAGCTTCATTGCTTCATTGCTCCACGGAGTCACCTAGTGCAG | 45100 fluorescence intensity (a.u.)
TTTAATAAGCGTTAGATTAACTGCAGGCCCCGCCGACCCACGGAGTCACCTAGTGCAG | 4400 fluorescence intensity (a.u.)
TGAAGATGCTGTAATTAACTAATCAAGAAGCAAAATCTTCCGGAGTCACCTAGTGCAG | 10200 fluorescence intensity (a.u.)
CTGTGATTTAACTTTACAATAGCGAGAATTCAGATTGCATCGGAGTCACCTAGTGCAG | 22500 fluorescence intensity (a.u.)
GTTGACAGGTTGAGTAGCGTTGCCACTGTTCTATCTTCGTCGGAGTCACCTAGTGCAG | 18900 fluorescence intensity (a.u.)
ATTTGACAAAATATATTTGGGATGGATGTTTGGTGATGCACGGAGTCACCTAGTGCAG | 6770 fluorescence intensity (a.u.)
CCATCAAATTGATACTCCCTCCGTTTTATAATGTAAAACTCGGAGTCACCTAGTGCAG | 14700 fluorescence intensity (a.u.)
TAATTGATGTAATTTAAATTATTCTTGGTCTTAGTGTATACGGAGTCACCTAGTGCAG | 54800 fluorescence intensity (a.u.)
TATTAATTGATGCGATTTAAATTATCTTTGGTCTTGATGTCGGAGTCACCTAGTGCAG | 50000 fluorescence intensity (a.u.)
ACAAATGAAATTTCTGTTGACTTCCAAAATGTTGATCCATCGGAGTCACCTAGTGCAG | 6240 fluorescence intensity (a.u.)
AATAAATCTAAACAATGATATATCCAGATTTGTTATAGTACGGAGTCACCTAGTGCAG | 4540 fluorescence intensity (a.u.)
TTAATTAGGTTTAATAAATTCGTCTCGTGGTTTACTGACGCGGAGTCACCTAGTGCAG | 19400 fluorescence intensity (a.u.)
AATTTAATTTTAGGTCTAGAATGAAATTTTGAAGTTACCTCGGAGTCACCTAGTGCAG | 9830 fluorescence intensity (a.u.)
AATAAATCAGTTTAATTTTCGTAGGCTTTGGTAAAATTCTCGGAGTCACCTAGTGCAG | 8370 fluorescence intensity (a.u.)
TTATTAATTAAGAGGTAACACATACAACATATCACATATACGGAGTCACCTAGTGCAG | 16700 fluorescence intensity (a.u.)
TCAATAAATAATATATTAATGATTCACCTCCTCTTACACACGGAGTCACCTAGTGCAG | 5780 fluorescence intensity (a.u.)
AAATATAAATCACTTAAAGTATTTTGAGTGATAAAACAACCGGAGTCACCTAGTGCAG | 3300 fluorescence intensity (a.u.)
CGTTTAATATTTATAATTAGTATCCAAACATTTAATGTGACGGAGTCACCTAGTGCAG | 13000 fluorescence intensity (a.u.)

Sequence | binding signal
GCTATGGCTTGATTTGATGTCCTCACCTCCCAGGGAGCATCGGAGTCACCTAGTGCAG | 3570 fluorescence intensity (a.u.)
AACCATTTCATTTTGATTTAGACATGGCATCAGAACAACCCGGAGTCACCTAGTGCAG | 4980 fluorescence intensity (a.u.)
AGAGAATGGTACTTGATTTACAGCAAGGCTTCAGAAAGGCCGGAGTCACCTAGTGCAG | 7240 fluorescence intensity (a.u.)
AATAATCTAATAATCTATAATTTTATACTATAGTTATTTTCGGAGTCACCTAGTGCAG | 3300 fluorescence intensity (a.u.)
AAAATAAACATGTGGGATTAGATATAGGAGCCCACTAGCACGGAGTCACCTAGTGCAG | 3760 fluorescence intensity (a.u.)
CTGTTAATGGAAACGCCGCGCCCTCTCCTCCTCCCTTCCCCGGAGTCACCTAGTGCAG | 8830 fluorescence intensity (a.u.)
AACAAATTACAGAATCTGCCTGCAAATTGCGAGACGGATTCGGAGTCACCTAGTGCAG | 18100 fluorescence intensity (a.u.)
GATAAATTTCTATGTCAGAGTATCCTTTTATCACTATATGCGGAGTCACCTAGTGCAG | 4250 fluorescence intensity (a.u.)
ATATCTATCTAGATTCATTAACATCAATATAAATGTGGGACGGAGTCACCTAGTGCAG | 4050 fluorescence intensity (a.u.)
GTTTTCGTGTCCAACGTTTGATTGTTCGTTTTATATGAAACGGAGTCACCTAGTGCAG | 3230 fluorescence intensity (a.u.)
TAGAGTAAATTAAATTAACACTAACAAACAAACAAACACACGGAGTCACCTAGTGCAG | 24900 fluorescence intensity (a.u.)
TCAACAGAGCATATCAATTGATTTTCTCTGAACTGCTCTCCGGAGTCACCTAGTGCAG | 4240 fluorescence intensity (a.u.)
TTGATAGATAAATACAGTGGGCAGCGTACAAGTTGACATACGGAGTCACCTAGTGCAG | 14800 fluorescence intensity (a.u.)
GGGATTGAGATTTTATACATGGAGCCACTGCGAGTTGTACCGGAGTCACCTAGTGCAG | 11800 fluorescence intensity (a.u.)
GCTAACATACATTGAAATTAAAGAAGCGGTTGAGAGAGAGCGGAGTCACCTAGTGCAG | 4290 fluorescence intensity (a.u.)
TCGAATTAACTGAGCAGAAAACATGTCCAATTGTGATGCACGGAGTCACCTAGTGCAG | 7860 fluorescence intensity (a.u.)
TATGATTAAACCGAAGCTCATCTGTGGCCCATTACTGCCCCGGAGTCACCTAGTGCAG | 24800 fluorescence intensity (a.u.)
TGTGACAGAATGAGAAAGCAATTGTTGTCTTGGATGGTTGCGGAGTCACCTAGTGCAG | 10500 fluorescence intensity (a.u.)
AATTGGTTGATTGATTCCACCATCCTAGGCTGTGTTTAATCGGAGTCACCTAGTGCAG | 29900 fluorescence intensity (a.u.)
AGTGTAACACTTAATTGAATTCAATCTCCAACTTGACTGTCGGAGTCACCTAGTGCAG | 30500 fluorescence intensity (a.u.)
ATTGGAGCTATCAATTAGCCATGTCATGTGTAGGTGCGTTCGGAGTCACCTAGTGCAG | 13800 fluorescence intensity (a.u.)

Sequence | binding signal
ACCAAAATTGGTATGGTTTATATCACTTGAACCATAATAGCGGAGTCACCTAGTGCAG | 3860 fluorescence intensity (a.u.)
GCATTTCTGACATGATTTTCCCTAATCTATTTACAGGAGGCGGAGTCACCTAGTGCAG | 10300 fluorescence intensity (a.u.)
GTACCCATACCCATATAATTGACTTGTAGAATTTATAGTTCGGAGTCACCTAGTGCAG | 4950 fluorescence intensity (a.u.)
TAGATTGAGACTCCAGTTTTATCTAAGTCTACACCAGAAGCGGAGTCACCTAGTGCAG | 4240 fluorescence intensity (a.u.)
CAGCTCGTTGACATTCCTAATTGTTTTGATTGTCATCCACCGGAGTCACCTAGTGCAG | 14800 fluorescence intensity (a.u.)
GTCGTAAATTTCGGAAATTTGGCTTCCGTAGCTGCATGCGCGGAGTCACCTAGTGCAG | 8540 fluorescence intensity (a.u.)
GCAAACCAATTAACTAGCCTTTAATTTGCGGTACGCTTCTCGGAGTCACCTAGTGCAG | 22800 fluorescence intensity (a.u.)
AAACTAATTTTAGTGTGAAGTAAACATACCCTATGAATGGCGGAGTCACCTAGTGCAG | 17800 fluorescence intensity (a.u.)
ATGGTAATTGCAGAGCAGGAATCAAGCTGGCCTGCCACTCCGGAGTCACCTAGTGCAG | 6710 fluorescence intensity (a.u.)
AATAAGTAAATTGGTAGCCTAACTAGTCTAGAAATATGTTCGGAGTCACCTAGTGCAG | 17800 fluorescence intensity (a.u.)
GTTTAGTTTAAAATTAACACCAATTATTACTACTAGGACTCGGAGTCACCTAGTGCAG | 12600 fluorescence intensity (a.u.)
ATAAATGAAATTGGATGGATGCCAAACTTTTGAGCTAATCCGGAGTCACCTAGTGCAG | 10700 fluorescence intensity (a.u.)
AACAATTTACATTGTCATTTAGGTAAGATTCAATCTTATTCGGAGTCACCTAGTGCAG | 3270 fluorescence intensity (a.u.)
ACCTAGTTATACTGACAAATTATGGTATACCTAAAATTTGCGGAGTCACCTAGTGCAG | 3950 fluorescence intensity (a.u.)
GTTGAGACAACATATTAATTTGACTATAATTTATGGTACACGGAGTCACCTAGTGCAG | 11000 fluorescence intensity (a.u.)
GAAAACATTGCTACTAATTGTTTTATATTTTCTAGAAATTCGGAGTCACCTAGTGCAG | 3490 fluorescence intensity (a.u.)
CATTTATACTGATAGTATAATATTATCAGTAAAGAGCACCCGGAGTCACCTAGTGCAG | 3380 fluorescence intensity (a.u.)
GCTGATTGAGAGTAGTAGTATTCTTTAGAGTAGTAGTATTCGGAGTCACCTAGTGCAG | 47200 fluorescence intensity (a.u.)
CACATAATTTTAGAGACCATCCATACACTTCTCTAATGACCGGAGTCACCTAGTGCAG | 9180 fluorescence intensity (a.u.)
CATCAAAATTGAAAGTTTGGAAGTTTGGTTGAAATTGGAACGGAGTCACCTAGTGCAG | 7900 fluorescence intensity (a.u.)
CATATTTTGAGATTGACAAAGTTATCATGGATGTCTTGCTCGGAGTCACCTAGTGCAG | 16900 fluorescence intensity (a.u.)
